The antibiotic and cytotoxicity screens of Wong et al. (2023)
This is one part of the list.

Columns and labels:
HSkMC = human skeletal muscle cells; experiment: cytotoxicity call (relative viability < 0.9); details: 10 µM
S. aureus RN4220 = experiment: growth inhibition call (relative growth <= 0.2); details: 50 µM

Structure (SMILES) | cytotoxicity call (HSkMC) | growth inhibition call (S. aureus RN4220)
Cc1noc(C)c1NC(=O)Nc1ccc2c(c1)C(=O)N([C@H](C)CO)C[C@@H](C)[C@H](CN(C)C(=O)C1CCCCC1)OCCCC[C@@H](C)O2 | inactive | inactive
COc1ccc(S(=O)(=O)N(C)C[C@H]2Oc3ccc(NC(=O)CCCN(C)C)cc3C(=O)N([C@H](C)CO)C[C@@H]2C)cc1 | inactive | inactive
C[C@@H]1CN([C@@H](C)CO)S(=O)(=O)c2ccc(C#CCN(C)C)cc2O[C@H]1CN(C)Cc1ccccc1F | inactive | inactive
O=C(N/N=C/[C@H](O)[C@@H](O)[C@@H](O)[C@H](O)CO)c1ccccn1 | inactive | inactive
O=C(C[C@@H]1CC[C@H]2[C@@H](COC[C@@H](O)CN2S(=O)(=O)c2ccccc2F)O1)N1CCC(Cc2ccccc2)CC1 | inactive | inactive
O=C1c2ccccc2[C@](Cc2ccccc2I)(C(=O)NCc2ccccc2)[C@H](c2ccc(CO)cc2)N1C1CCCCC1 | inactive | inactive
C[C@H](CO)N1C[C@H](C)[C@H](CN(C)Cc2ccccc2)Oc2c(NC(=O)Nc3ccc(C(F)(F)F)cc3)cccc2C1=O | inactive | inactive
Cc1noc(C)c1S(=O)(=O)N(C)C[C@@H]1Oc2ccc(NS(=O)(=O)c3cn(C)cn3)cc2CC(=O)N([C@@H](C)CO)C[C@H]1C | inactive | inactive
CNC[C@@H]1CC[C@@H](N)[C@@H](O[C@H]2[C@H](O)[C@@H](O[C@H]3OC[C@](C)(O)[C@H](NC)[C@H]3O)[C@H](N)C[C@@H]2N)O1 | inactive | inactive
Cc1noc(C)c1NC(=O)Nc1ccc2c(c1)C(=O)N([C@@H](C)CO)C[C@H](C)[C@H](CN(C)C(=O)Nc1ccc3c(c1)OCO3)OCCCC[C@H](C)O2 | inactive | inactive
COc1ccc2c3c([nH]c2c1)[C@@H](CO)N(C[C@]13CCN(CC1)C(=O)Nc1ccccc1)C(=O)Nc1ccc(cc1)F | inactive | inactive
CN1CCN(C(=O)c2nn(C)c3c2CCN(S(C)(=O)=O)C3)CC1 | inactive | inactive
C[C@@H]1CN([C@H](C)CO)C(=O)c2cc(NC(=O)Nc3ccccc3)ccc2O[C@@H]1CN(C)Cc1ccc(Cl)c(Cl)c1 | inactive | inactive
C[C@H](CO)N1C[C@H](C)[C@H](CN(C)C(=O)NC2CCCCC2)OCCCC[C@H](C)Oc2ccc(NC(=O)NC3CCCCC3)cc2C1=O | inactive | inactive
COc1ccc(OC)c(S(=O)(=O)N2[C@@H]3CC[C@@H](C3)[C@H]2c2nc3cccc(OCc4ccc(F)cc4)c3[nH]2)c1 | inactive | inactive
COc1ccc(CN(C)C[C@H]2OCCCC[C@H](C)Oc3ccc(NS(=O)(=O)c4ccc(Cl)cc4)cc3C(=O)N([C@H](C)CO)C[C@H]2C)cc1 | inactive | inactive
O=C1c2ccccc2C(=O)c2c1ccc(O)c2O | inactive | inactive
C[C@H]1CN([C@@H](C)CO)C(=O)c2cc(NC(=O)Nc3ccc(F)cc3)ccc2O[C@@H]1CN(C)S(=O)(=O)c1cn(C)cn1 | inactive | inactive
C[C@H]1CN([C@@H](C)CO)C(=O)Cc2cc(NC(=O)NC3CCCCC3)ccc2O[C@H]1CN(C)S(C)(=O)=O | inactive | inactive
COc1ccc2c3c([nH]c2c1)[C@H](CO)N(C[C@]13CCN(CC1)S(=O)(=O)C)C(=O)Nc1ccc(cc1)F | inactive | inactive
